Source: patent US9873709B2 (priority 2013, dated 2018)

What follows are compounds tested against isolated recombinant JAK1 kinase domain (Homo sapiens (Human), UniProt P23458). Details: read-out: JAK1 Ki.

Row | Compound | Ki [nM]
1 | O=C(N[C@H]1CN2CCC1CC2)c1ccc(Nc2nc3c(N4CCC(O)(c5ccc(Cl)cc5)CC4)cccn3n2)cc1 [Example 1-89, 4-[[8-[4-(4-chlorophenyl)-4-hydroxy-1-piperidyl]-[1,2,4]triazolo[1,5-a]pyridin-2-yl]amino]-N-[(3R)-quinuclidin-3-yl]benzamide] | 1.9

Same assay, conditions: read-out: JAK1 Ki; isolated recombinant JAK1 kinase domain, 25 μM ATP

Row | Compound | Ki [nM]
2 | CN1CCOC2(C1)CN(C(=O)c1ccc(Nc3nc4c(N5CCC(O)(c6ccc(Cl)cc6)CC5)cccn4n3)cc1)C2 [Example 1-70, [4-[[8-[4-(4-chlorophenyl)-4-hydroxy-1-piperidyl]-[1,2,4]triazolo[1,5-a]pyridin-2-yl]amino]phenyl]-(8-methyl-5-oxa-2,8-diazaspiro[3.5]nonan-2-yl)methanone] | 2.57
3 | CN(C)C(=O)C1CN(C(=O)c2ccc(Nc3nc4c(N5CCC(O)(c6ccc(Cl)cc6)CC5)cccn4n3)cc2)CCN1C (stereo not shown) [Example 1-71, 4-[4-[[8-[4-(4-chlorophenyl)-4-hydroxy-1-piperidyl]-[1,2,4]triazolo[1,5-a]pyridin-2-yl]amino]benzoyl]-N,N,1-trimethyl-piperazine-2-carboxamide] | 4.5
4 | CN(C)C(=O)C1(c2ccncc2)CCCN1C(=O)c1ccc(Nc2nc3c(N4CCC(O)(c5ccc(Cl)cc5)CC4)cccn3n2)cc1 (stereo not shown) [Example 1-74, 1-[4-[[8-[4-(4-chlorophenyl)-4-hydroxy-1-piperidyl]-[1,2,4]triazolo[1,5-a]-pyridin-2-yl]amino]benzoyl]-N,N-dimethyl-2-(4-pyridyl)pyrrolidine-2-carboxamide] | 1.34
5 | CN1CC[C@H]2CN(C(=O)c3ccc(Nc4nc5c(N6CCC(O)(c7ccc(Cl)cc7)CC6)cccn5n4)cc3)C[C@H]21 [Example 1-75, [(3aS,6aS)-1-methyl-2,3,3a,4,6,6a-hexahydropyrrolo[3,4-b]pyrrol-5-yl]-[4[[8-[4-(4-chlorophenyl)-4-hydroxy-1-piperidyl]-[1,2,4]triazolo[1,5-a]pyridin-2-yl]amino]phenyl] methanone] | 2.48
6 | CN1C[C@@H]2CCN(C(=O)c3ccc(Nc4nc5c(N6CCC(O)(c7ccc(Cl)cc7)CC6)cccn5n4)cc3)[C@@H]2C1 [Example 1-76, [(3aS,6aS)-5-methyl-2,3,3a,4,6,6a-hexahydropyrrolo[2,3-c]pyrrol-1-yl]-[4-[[8-[4-(4-chlorophenyl)-4-hydroxy-1-piperidyl]-[1,2,4]triazolo[1,5-a]pyridin-2-yl]amino]phenyl] methanone] | 1.51
7 | CN(C)CC1(O)CCCN(C(=O)c2ccc(Nc3nc4c(N5CCC(O)(c6ccc(Cl)cc6)CC5)cccn4n3)cc2)CC1 (stereo not shown) [Example 1-77, [4-[[8-[4-(4-chlorophenyl)-4-hydroxy-1-piperidyl]-[1,2,4]triazolo[1,5-a]pyridin-2-yl]amino]phenyl]-[4-[(dimethylamino)methyl]-4-hydroxy-azepan-1-yl]methanone] | 3.29
8 | CN1CCN(C(=O)C2COCCN2C(=O)c2ccc(Nc3nc4c(N5CCC(O)(c6ccc(Cl)cc6)CC5)cccn4n3)cc2)CC1 (stereo not shown) [Example 1-78, [4-[[8-[4-(4-chlorophenyl)-4-hydroxy-1-piperidyl]-[1,2,4]triazolo[1,5-a]pyridin-2-yl]amino]phenyl]-[3-(4-methylpiperazine-1-carbonyl)morpholin-4-yl]methanone] | 3.26
9 | Cc1cc(N(C)C)cc(C2CCCN2C(=O)c2ccc(Nc3nc4c(N5CCC(O)(c6ccc(Cl)cc6)CC5)cccn4n3)cc2)n1 (stereo not shown) [Example 1-79, [4-[[8-[4-(4-chlorophenyl)-4-hydroxy-1-piperidyl]-[1,2,4]triazolo[1,5-a]pyridin-2-yl]amino]phenyl]-[2-[4-(dimethylamino)-6-methyl-2-pyridyl]pyrrolidin-1-yl]methanone] | 4.79
10 | CN(C)CCC1CCCN(C(=O)c2ccc(Nc3nc4c(N5CCC(O)(c6ccc(Cl)cc6)CC5)cccn4n3)cc2)C1 (stereo not shown) [Example 1-80, [4[[8-[4-(4-chlorophenyl)-4-hydroxy-1-piperidyl]-[1,2,4]triazolo[1,5-a]pyridin-2-yl]amino]phenyl]-[3-[2-(dimethylamino)ethyl]-1-piperidyl]methanone] | 3.47
11 | CN1CCC2(CC1)CN(C(=O)c1ccc(Nc3nc4c(N5CCC(O)(c6ccc(Cl)cc6)CC5)cccn4n3)cc1)C2 [Example 1-81, [4-[[8-[4-(4-chlorophenyl)-4-hydroxy-1-piperidyl]-[1,2,4]triazolo[1,5-a]pyridin-2-yl]amino]phenyl]-(7-methyl-2,7-diazaspiro[3.5]nonan-2-yl)methanone] | 0.82
12 | CN1CCN(C(=O)c2ccc(Nc3nc4c(N5CCC(O)(c6ccc(Cl)cc6)CC5)cccn4n3)cc2)C(C(=O)N(C)C)C1 (stereo not shown) [Example 1-82, 1-[4-[[8-[4-(4-chlorophenyl)-4-hydroxy-1-piperidyl]-[1,2,4]triazolo[1,5-a]pyridin-2-yl]amino]benzoyl]-N,N,4-trimethyl-piperazine-2-carboxamide] | 3.09
13 | O=C(c1ccc(Nc2nc3c(N4CCC(O)(c5ccc(Cl)cc5)CC4)cccn3n2)cc1)N1CCC(c2ccncc2)CC1 [Example 1-83, [4-[[8-[4-(4-chlorophenyl)-4-hydroxy-1-piperidyl]-[1,2,4]triazolo[1,5-a]pyridin-2-yl]amino]phenyl]-[4-(4-pyridyl)-1-piperidyl]methanone] | 3.24
14 | O=C(c1ccc(Nc2nc3c(N4CCC(O)(c5ccc(Cl)cc5)CC4)cccn3n2)cc1)N1CCN(CCO)CC1 [Example 1-84, [4-[[8-[4-(4-chlorophenyl)-4-hydroxy-1-piperidyl]-[1,2,4]triazolo[1,5-a]pyridin-2-yl]amino]phenyl]-[4-(2-hydroxyethyl)piperazin-1-yl]methanone] | 2.37
15 | CN(CCc1ccccn1)C(=O)c1ccc(Nc2nc3c(N4CCC(O)(c5ccc(Cl)cc5)CC4)cccn3n2)cc1 [Example 1-85, 4-[[8-[4-(4-chlorophenyl)-4-hydroxy-1-piperidyl]-[1,2,4]triazolo[1,5-a]pyridin-2-yl]amino]-N-methyl-N-[2-(2-pyridyl)ethyl]benzamide] | 2.49
16 | CN(C)C1CCN(C(=O)c2ccc(Nc3nc4c(N5CCC(O)(c6ccc(Cl)cc6)CC5)cccn4n3)cc2)CC1 [Example 1-86, [4-[[8-[4-(4-chlorophenyl)-4-hydroxy-1-piperidyl]-[1,2,4]triazolo[1,5-a]pyridin-2-yl]amino]phenyl]-[4-(dimethylamino)-1-piperidyl]methanone] | 2.01
17 | CN1CCC(N(C)C(=O)c2ccc(Nc3nc4c(N5CCC(O)(c6ccc(Cl)cc6)CC5)cccn4n3)cc2)C1 (stereo not shown) [Example 1-87, 4-[[8-[4-(4-chlorophenyl)-4-hydroxy-1-piperidyl]-[1,2,4]triazolo[1,5-a]pyridin-2-yl]amino]-N-methyl-N-(1-methylpyrrolidin-3-yl)benzamide] | 4.74
18 | CN(C)C1CCN(C(=O)c2ccc(Nc3nc4c(N5CCC(O)(c6ccc(Cl)cc6)CC5)cccn4n3)cc2)C1 (stereo not shown) [Example 1-88, [4-[[8-[4-(4-chlorophenyl)-4-hydroxy-1-piperidyl]-[1,2,4]triazolo[1,5-a]pyridin-2-yl]amino]phenyl]-[3-(dimethylamino)pyrrolidin-1-yl]methanone] | 2.7
19 | CC1CN(CCNC(=O)c2ccc(Nc3nc4c(N5CCC(O)(c6ccc(Cl)cc6)CC5)cccn4n3)cc2)CC(C)O1 (stereo not shown) [Example 1-91, 4-[[8-[4-(4-chlorophenyl)-4-hydroxy-1-piperidyl]-[1,2,4]triazolo[1,5-a]pyridin-2-yl]amino]-N-[2-(2,6-dimethylmorpholin-4-yl)ethyl]benzamide] | 2.55
